In patent US20150322125A1 (COVAGEN, published 2015):
Positions count from the first letter of the chain named. Read-outs that look alike come from different tables or passages of the source.

B1: Fyn SH3-derived polypeptide 1L3-B09 (parental clone) (designed binder, not shown: small tags and cut ends)
chain: GVTLFVALYDYANHGNRDLSFHKGEKFQILSTHEYEDWWEARSLTTGETGYIPSNYVAPVDSIQ
B2: Fyn SH3-derived polypeptide 11L0-C06 (designed binder, not shown: small tags and cut ends)
chain: B1 chain with A12K, N13Q, H14K, N16H, R17L
B3: Fyn SH3-derived polypeptide 11L6-F03 (designed binder, not shown: small tags and cut ends)
chain: B1 chain with A12D, N13K, H14L, G15S, N16A, R17L
B4: Fyn SH3-derived polypeptide 11L10-A05 (designed binder, not shown: small tags and cut ends)
chain: B1 chain with A12S, N13S, H14R, N16V, R17L
B5: Fyn SH3-derived polypeptide 11L11-A09 (designed binder, not shown: small tags and cut ends)
chain: B1 chain with A12S, N13R, H14K, G15S, R17L

What was measured:
Test in all cases: cell-based or functional assay
[1] = target: T1, recombinant human glycosylated IL-17A (produced in-house in HEK EBNA cells) (human, UniProt Q16552 24-155, glycosylated (N-linked glycosylation site; position not given))
[2] = target: T2, non-glycosylated human IL-17A (R&D Systems) (human, UniProt Q16552 24-155)
[3] = target: T2, non-glycosylated human IL-17A (R&D …); remark: listed apart in the source
[4] = target: T2, non-glycosylated human IL-17A (R&D …); remark: listed apart in the source
[5] = target: T1, recombinant human glycosylated IL-17A …; remark: listed apart in the source

| Binder | IC50 value (nM), inhibition of IL-6 production by normal human dermal fibroblasts stimulated with IL-17A and TNFα [1] [nM] | further results |
| --- | --- | --- |
| B1 | 300 |  |
| B2 | 35 | IC50 (read off the curve); % inhibition of IL-6 release from normal human dermal fibroblasts stimulated with IL-17A + TNFα [2]: ~40 nM |
| B3 | 63 | IC50 (read off the curve); % inhibition of IL-6 release from normal human dermal fibroblasts stimulated with IL-17A + TNFα [3]: ~50 nM |
| B4 | 28 | IC50 (read off the curve); % inhibition of IL-6 release from normal human dermal fibroblasts stimulated with IL-17A + TNFα [4]: ~40 nM |
| B5 |  | IC50 value (nM), inhibition of IL-6 production by normal human dermal fibroblasts stimulated with IL-17A and TNFα [5]: 66 nM |
